{"source": "the BET-seq Pho4 binding data (Le et al. 2018)", "note": "Some of the results follow. These are noisy estimates, calculated here from bound and input reads."}
{"biological_target": "T1, Pho4 (S. cerevisiae) (UniProt P07270)", "T1 sequence": "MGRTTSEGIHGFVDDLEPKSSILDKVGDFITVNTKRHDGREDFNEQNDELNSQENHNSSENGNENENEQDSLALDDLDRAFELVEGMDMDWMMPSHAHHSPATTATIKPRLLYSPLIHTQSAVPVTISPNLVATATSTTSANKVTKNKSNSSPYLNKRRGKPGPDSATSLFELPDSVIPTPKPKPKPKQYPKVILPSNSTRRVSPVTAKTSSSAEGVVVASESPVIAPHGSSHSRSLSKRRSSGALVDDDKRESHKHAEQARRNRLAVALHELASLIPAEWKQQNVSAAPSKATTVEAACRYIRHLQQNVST", "test": "relative binding free energy (BET-seq); higher = weaker binding", "conditions": "reference: library average", "units": {"relative binding free energy": "kcal/mol"}}
{"sequence": "TGTAGCACGTGGGATA", "relative binding free energy": -0.15}
{"sequence": "GATGTCACGTGGTCAG", "relative binding free energy": 0.12}
{"sequence": "TCGGACACGTGGGGGG", "relative binding free energy": -0.14}
{"sequence": "GGCGTCACGTGTTGTT", "relative binding free energy": 0.22}
{"sequence": "GATATCACGTGAGTTG", "relative binding free energy": 0.22}
{"sequence": "ATACTCACGTGGGTGG", "relative binding free energy": 0.13}
{"sequence": "CATAGCACGTGATGGG", "relative binding free energy": 0.04}
{"sequence": "AGTGTCACGTGCAAAG", "relative binding free energy": 0.06}
{"sequence": "GGATTCACGTGGTGGT", "relative binding free energy": 0.28}
{"sequence": "GATTTCACGTGGGGGA", "relative binding free energy": 0.26}
{"sequence": "CTTGTCACGTGCTGCG", "relative binding free energy": 0.14}
{"sequence": "ATAACCACGTGTGGTT", "relative binding free energy": -0.01}
{"sequence": "CTGATCACGTGGGCTT", "relative binding free energy": 0.07}
{"sequence": "AGGCGCACGTGTACGT", "relative binding free energy": -0.05}
{"sequence": "GTATACACGTGGGTAA", "relative binding free energy": -0.11}
{"sequence": "TATATCACGTGTGGTG", "relative binding free energy": 0.17}
{"sequence": "TTTCCCACGTGGTTTT", "relative binding free energy": 0}
{"sequence": "GGGTACACGTGACTGA", "relative binding free energy": 0.38}
{"sequence": "GGGATCACGTGGTTAA", "relative binding free energy": 0.14}
{"sequence": "ACGGGCACGTGGGAGT", "relative binding free energy": -0.2}
{"sequence": "TGACTCACGTGTTAAT", "relative binding free energy": 0.25}
{"sequence": "GTAGCCACGTGTGTTG", "relative binding free energy": -0.11}
{"sequence": "TTGCGCACGTGTTAGG", "relative binding free energy": -0.05}
{"sequence": "TGTTGCACGTGAGTAG", "relative binding free energy": 0.24}
{"sequence": "TTAGTCACGTGGGAGG", "relative binding free energy": 0.11}
{"sequence": "TGATTCACGTGAGGCA", "relative binding free energy": 0.29}
{"sequence": "GGAGTCACGTGATCAT", "relative binding free energy": 0.38}
{"sequence": "TGGAACACGTGTGTTA", "relative binding free energy": 0.06}
{"sequence": "TTGTGCACGTGAGTGG", "relative binding free energy": 0.2}
{"sequence": "ATGAGCACGTGCGTTT", "relative binding free energy": -0.17}
{"sequence": "CGGTTCACGTGAGGTT", "relative binding free energy": 0.38}
{"sequence": "ATGGCCACGTGGGATG", "relative binding free energy": -0.17}
{"sequence": "TGTTTCACGTGCGTCA", "relative binding free energy": 0.13}
{"sequence": "TGGGTCACGTGCTGCT", "relative binding free energy": 0.1}
{"sequence": "AAATGCACGTGGCTGT", "relative binding free energy": -0.05}
{"sequence": "TTAAGCACGTGTATAT", "relative binding free energy": -0.02}
{"sequence": "ACGGGCACGTGTGATG", "relative binding free energy": -0.06}
{"sequence": "GTAGTCACGTGAAGTA", "relative binding free energy": 0.34}
{"sequence": "ACTTGCACGTGTTGGA", "relative binding free energy": 0.09}
{"sequence": "AGTTTCACGTGGGTAG", "relative binding free energy": 0.23}
{"sequence": "GGCTTCACGTGGGGGG", "relative binding free energy": 0.07}
{"sequence": "TGAGTCACGTGGATGT", "relative binding free energy": 0.28}
{"sequence": "TGTATCACGTGACGAT", "relative binding free energy": 0.24}
{"sequence": "TTGTTCACGTGCTATA", "relative binding free energy": 0.1}
{"sequence": "TTGTACACGTGTGCCT", "relative binding free energy": 0.12}
{"sequence": "TTGTACACGTGGTGGT", "relative binding free energy": 0.01}
{"sequence": "GGTCACACGTGGGTGC", "relative binding free energy": -0.01}
{"sequence": "CTAGGCACGTGAGGGT", "relative binding free energy": 0.05}
{"sequence": "ATTTGCACGTGCCGGT", "relative binding free energy": -0.05}
{"sequence": "AGGTGCACGTGGAAAG", "relative binding free energy": 0.01}
{"sequence": "TCATGCACGTGGTCGG", "relative binding free energy": -0.08}
{"sequence": "GTTAGCACGTGAGAGT", "relative binding free energy": 0.32}
{"sequence": "CTAGACACGTGGGTTG", "relative binding free energy": -0.23}
{"sequence": "TGGGTCACGTGAAGTG", "relative binding free energy": 0.25}
{"sequence": "GCAGTCACGTGTAGGT", "relative binding free energy": 0.05}
{"sequence": "GGGAACACGTGAGCGT", "relative binding free energy": 0.19}
{"sequence": "ATTTACACGTGCTGGT", "relative binding free energy": -0.01}
{"sequence": "TTTCGCACGTGCGGAT", "relative binding free energy": 0.03}
{"sequence": "AGGCGCACGTGGTGTA", "relative binding free energy": -0.18}
{"sequence": "TCAGGCACGTGTGGAT", "relative binding free energy": 0.09}
{"sequence": "GGCAGCACGTGGTGCG", "relative binding free energy": -0.2}
{"sequence": "ATTTTCACGTGGGTCT", "relative binding free energy": 0.16}
{"sequence": "TTCCACACGTGGGTGT", "relative binding free energy": -0.03}
{"sequence": "GGGGTCACGTGATAGT", "relative binding free energy": 0.34}
{"sequence": "TTAGACACGTGGTGGA", "relative binding free energy": -0.07}
{"sequence": "AGGGTCACGTGGGTGC", "relative binding free energy": 0.05}
{"sequence": "TTTAACACGTGGGGGT", "relative binding free energy": -0.11}
{"sequence": "TCTGTCACGTGGTCTT", "relative binding free energy": -0.09}
{"sequence": "TGACTCACGTGGGAGG", "relative binding free energy": 0.09}
{"sequence": "GAGTTCACGTGGATGC", "relative binding free energy": 0.52}
{"sequence": "CGGGCCACGTGGGGTT", "relative binding free energy": -0.18}
{"sequence": "GGGGCCACGTGGTTAG", "relative binding free energy": -0.03}
{"sequence": "AGTGTCACGTGTCTGG", "relative binding free energy": 0.11}
{"sequence": "TCATCCACGTGTTGTT", "relative binding free energy": 0.05}
{"sequence": "AGAGACACGTGATGGC", "relative binding free energy": 0.24}
{"sequence": "GATGGCACGTGTGGTG", "relative binding free energy": 0.2}
{"sequence": "GCGTGCACGTGTGGGA", "relative binding free energy": 0.07}
{"sequence": "TTTTGCACGTGGCTGT", "relative binding free energy": -0.02}
{"sequence": "TTATGCACGTGCACTT", "relative binding free energy": 0.02}
{"sequence": "GGGCGCACGTGTGGGG", "relative binding free energy": 0.11}
{"sequence": "GGAGGCACGTGTGCTA", "relative binding free energy": -0.06}
{"sequence": "CAAGGCACGTGGCTGG", "relative binding free energy": -0.01}
{"sequence": "AGGGACACGTGGCGCG", "relative binding free energy": -0.11}
{"sequence": "CGTTCCACGTGAGGTT", "relative binding free energy": 0.24}
{"sequence": "TGTGACACGTGGGTTT", "relative binding free energy": -0.17}
{"sequence": "TTAATCACGTGTGCGA", "relative binding free energy": 0.15}
{"sequence": "GTTTGCACGTGTGAGG", "relative binding free energy": 0.12}
{"sequence": "TTGGGCACGTGTCTGA", "relative binding free energy": -0.16}
{"sequence": "GCTTGCACGTGGTTGA", "relative binding free energy": 0.03}
{"sequence": "ATGGACACGTGTTTAA", "relative binding free energy": 0}
{"sequence": "GATGGCACGTGGCGGT", "relative binding free energy": -0.08}
{"sequence": "TAGGACACGTGGTGAG", "relative binding free energy": -0.02}
{"sequence": "GGAGTCACGTGTCGTT", "relative binding free energy": 0}
{"sequence": "AGTGGCACGTGATCTG", "relative binding free energy": 0.02}
{"sequence": "TGATTCACGTGGATAG", "relative binding free energy": 0.21}
{"sequence": "TTGTGCACGTGTTATG", "relative binding free energy": -0.03}
{"sequence": "TTTTTCACGTGTGCAC", "relative binding free energy": 0.34}
{"sequence": "ACGTTCACGTGGGAGG", "relative binding free energy": 0.15}
{"sequence": "ACTGCCACGTGGGGTG", "relative binding free energy": -0.21}
{"sequence": "TCGGGCACGTGGAGTT", "relative binding free energy": 0.03}
{"sequence": "TGTCACACGTGGTTAT", "relative binding free energy": 0.09}
{"sequence": "CGGTGCACGTGAGTAG", "relative binding free energy": 0.1}
{"sequence": "TTCTGCACGTGGCTGG", "relative binding free energy": -0.02}
{"sequence": "ATGGACACGTGACTGG", "relative binding free energy": 0.09}
{"sequence": "GGTTTCACGTGCGTTG", "relative binding free energy": 0.4}
{"sequence": "TTAGACACGTGAGGGG", "relative binding free energy": 0.16}
{"sequence": "GGCTACACGTGGGGTT", "relative binding free energy": -0.08}
{"sequence": "ATGAACACGTGGCTTG", "relative binding free energy": -0.01}
{"sequence": "GGTGTCACGTGACCGG", "relative binding free energy": 0.17}
{"sequence": "TTCGGCACGTGTTTGT", "relative binding free energy": -0.03}
{"sequence": "GGCAACACGTGCGGGT", "relative binding free energy": 0.01}
{"sequence": "ATTTCCACGTGTTTGG", "relative binding free energy": 0.03}
{"sequence": "TGTGTCACGTGCTCGT", "relative binding free energy": 0.03}
{"sequence": "TGTAGCACGTGGGAAT", "relative binding free energy": -0.24}
{"sequence": "GGGGCCACGTGCGTAG", "relative binding free energy": -0.11}
